Test system: 14-3-3σ
Assay: Covalent labeling of 14-3-3σ by peptides, intact protein LC/MS
Type: binding, human
Details: 2 µM 14-3-3σ, 10 mM MgCl2
Experimental: The LC/MS runs for 14-3-3σ were performed on a Waters ACQUITY UPLC class H instrument, in positive ion mode using electrospray ionization. […] The column was held at 40 °C and the autosampler at 10 °C. […] The run flow was 0.4 mL/min. […] The MS data were collected on a Waters SQD2 detector with an m/z range of 2–3071.98 at a range of 900–1900 m/z. The desolvation temperature was 500 °C with a flow rate of 800 L/h. The voltages used were 1.00 kV for the capillary and 24 V for the cone. MassLynx version 4.2 was used to operate the LCMS and analyze the data. Raw data were processed using openLYNX and deconvoluted using MaxEnt with a range of 28,000: 34,000 Da and a resolution of 1 Da/channel. […] For analysis, 24 μl sample was mixed with 6 μl of 2.4% formic acid in water and then 10 μl were injected to intact protein LCMS.

Ac-RAH-(pT)-(mC)-PASLQ-NH2 [Peptide 8, Methacrylate phosphopeptide derived from YAP-1 (PDB 3MHR)]
labeling of 14-3-3σ (5 µM peptide, 48 h, room temperature, HEPES 25 mM pH 7.5, 100 mM NaCl): 90% | covalent labeling of 14-3-3σ at the expected adduct mass (200 µM peptide, overnight, 4 °C, 25 mM HEPES pH 7.5, 100 mM NaCl, intact protein LC/MS): 35%

— paper PMC10692228, “A simple method for developing lysine targeted covalent protein reagents” (Nature Communications, 2023)
